Measured values as given in PubChem BioAssay (Tox21).
The inconclusive results got no clear call from the source; some entries with a clear call stand among them for comparison. Where the call is inconclusive, the potency comes from a doubtful curve fit. Active and inactive are the calls of the source. Unless noted, calls come from the whole dose curve; as a rule, active = well fitted cell-killing curve with a large enough effect in the repeat runs; inconclusive = weak or mixed curves, or effect the other way; inactive = no such curve, though single readings can be large or run the other way. Non-standard residues stand in square brackets, D forms with d. Residues, ends and D or L forms follow the SMILES beside them. pGlu = O=C1CC[C@@H](C(=O)O)N1

biological target: Vitamin D3 receptor (Homo sapiens) (UniProt P11473); assay: qHTS assay to identify small molecule agonists of the vitamin D receptor (VDR) signaling pathway (AID 743222; calls by dose curve); details: HEK293T VDR-UAS-bla, beta-lactamase FRET ratio, 16 h; activation: at 63.5 µM (top of the series) unless noted
Method in brief: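 VDR-bla cells were plated 4 h at 37C/5% CO2, then exposed to compounds in DMSO for 16 h. After LiveBLAzer B/G FRET substrate addition and 2 h at room temperature, beta-lactamase reporter fluorescence was read.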
% is set by controls: 0 for no effect and ±100 for the full control effect; potency is the fitted concentration of half-maximal effect; tags give direction and shape of the fitted curve or compound fluorescence and quenching.

Sequence of UniProt P11473 (P11473 whole entry, looked up): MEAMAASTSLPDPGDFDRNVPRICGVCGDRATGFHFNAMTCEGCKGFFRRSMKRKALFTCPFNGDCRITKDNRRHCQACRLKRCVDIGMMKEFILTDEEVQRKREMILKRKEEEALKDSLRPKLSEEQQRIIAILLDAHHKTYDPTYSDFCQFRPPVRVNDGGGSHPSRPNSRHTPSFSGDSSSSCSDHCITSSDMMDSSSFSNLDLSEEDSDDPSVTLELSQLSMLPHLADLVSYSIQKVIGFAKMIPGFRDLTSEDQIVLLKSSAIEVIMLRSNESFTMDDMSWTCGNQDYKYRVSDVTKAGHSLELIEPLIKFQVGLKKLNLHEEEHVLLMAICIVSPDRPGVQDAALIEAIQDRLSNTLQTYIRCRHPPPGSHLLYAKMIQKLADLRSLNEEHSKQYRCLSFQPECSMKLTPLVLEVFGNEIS

**Q.** Which Potency does the source give for `CCCCCCOCCO` here?
**A.** inactive

**Q.** Which Potency does the source give for `C/C=C1/CC2C=CC1C2` (stereo unspecified) here?
**A.** inconclusive: 21.9 µM [rising, partial curve, poor fit]

**Q.** For `O=C(O)c1ccc2cc(O)ccc2c1`, which “activation” value is on record?
**A.** inactive: 9.3%

**Q.** Which Potency does the source give for `CC(N)CN` (stereo unspecified) here?
**A.** inconclusive: 0.0525 µM [falling, full curve, poor fit]

**Q.** For `COC(=O)c1cccnc1`, which Potency is on record?
**A.** inactive

**Q.** For `c1ccc(-c2ccc(-c3ccccc3)cc2)cc1`, which activation is on record?
**A.** inconclusive: -9.35% [at 29.5 µM]

**Q.** For `CC(C)OP(=O)(CP(=O)(OC(C)C)OC(C)C)OC(C)C`, which Potency is on record?
**A.** inactive

**Q.** For `Cc1nc2ccc(Cl)cc2[nH]1`, which “activation” value is on record?
**A.** inactive: -8.34%

**Q.** With `CNC(=O)Nc1ccc(Cl)c(Cl)c1` as the molecule, how does the Potency read?
**A.** inconclusive: 21.9 µM [rising, partial curve, poor fit]

**Q.** For `C=CC(C)(O)CCCC(C)CCCC(C)CCCC(C)C` (stereo unspecified), which “activation” value is on record?
**A.** inactive: 8.8%

**Q.** For `CCCCCCOC(=O)CCCCCCCC(=O)OCCCCCC`, which “activation” value is on record?
**A.** inactive: -2.9%

biological target: Vitamin D3 receptor (Homo sapiens) (UniProt P11473); assay: qHTS assay to identify small molecule antagonists of the vitamin D receptor (VDR) signaling pathway (AID 743223; active = well fitted inhibition curve with a large enough effect in the signal ratio in the repeat runs, not every such curve was filed as active; inconclusive = weak or mixed curves, or effect the other way; inactive = no such curve, though single readings can be large or run the other way; the % refers to the signal ratio); details: VDR-UAS-bla HEK293T, beta-lactamase FRET ratio, 16 h; activity change, negative = inhibition: at 61 µM (top of the series) unless noted
Method in brief: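 VDR-bla cells were plated, incubated 4 h at 37C, then given compound and 1alpha,25-dihydroxyvitamin D3 (3 nM final). After 16 h at 37C, LiveBLAzer B/G FRET substrate was added for 2 h at room temperature and fluorescence read.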

**Q.** With `O=C1CCCC1` as the molecule, how does the activity change, negative = inhibition read?
**A.** inconclusive: -11.4% [at 78.8 µM]

**Q.** For `CCC1(c2ccccc2)C(=O)NCNC1=O`, which Potency is on record?
**A.** inactive

**Q.** Which activity change, negative = inhibition does the source give for `CCC(O)OCCCOC` (stereo unspecified) here?
**A.** inconclusive: 12.6% [at 78.8 µM]

**Q.** Which activity change, negative = inhibition does the source give for `CCN(CCO)c1cccc(C)c1` here?
**A.** inconclusive: 0.95%

**Q.** With `CC(=O)NO` as the molecule, how does the “activity change, negative = inhibition” value read?
**A.** inactive: -15.2%

**Q.** Which activity change, negative = inhibition does the source give for `C=CC(O)CCCCC` (stereo unspecified) here?
**A.** inconclusive: -21.8%

**Q.** For `CCCCCCCCN(C)C`, which Potency is on record?
**A.** inconclusive: 54.9 nM [inhibitor, full curve, poor fit]

**Q.** Which “activity change, negative = inhibition” value does the source give for `CC(C)(O)C(=O)O` here?
**A.** inactive: -0.461%

**Q.** With `CCNC(=O)[C@@H]1CCCN1C(=O)[C@H](CCCN=C(N)N)NC(=O)[C@H](CC(C)C)NC(=O)CNC(=O)[C@H](Cc1ccc(O)cc1)NC(=O)[C@H](CO)NC(=O)[C@H](Cc1c[nH]c2ccccc12)NC(=O)[C@H](Cc1cnc[nH]1)NC(=O)[C@@H]1CCC(=O)N1` ([pGlu]HWSYGLRP-NHEt) as the molecule, how does the “activity change, negative = inhibition” value read?
**A.** inactive: -2.28%

**Q.** With `COc1cc([N+](=O)[O-])ccc1N` as the molecule, how does the activity change, negative = inhibition read?
**A.** inconclusive: -12.8%

**Q.** For `c1ccc(-c2ccc(-c3ccccc3)cc2)cc1`, which “activity change, negative = inhibition” value is on record?
**A.** inactive: 10.6% [at 28.5 µM]

**Q.** For `CC(C)OP(=O)(CP(=O)(OC(C)C)OC(C)C)OC(C)C`, which Potency is on record?
**A.** inconclusive: 61600 nM [inhibitor, single point]

**Q.** For `CC(=O)OC[C@H]1O[C@@](COC(C)=O)(O[C@H]2O[C@H](COC(C)=O)[C@@H](OC(C)=O)[C@H](OC(C)=O)[C@H]2OC(C)=O)[C@@H](OC(C)=O)[C@@H]1OC(C)=O`, which Potency is on record?
**A.** inconclusive: 31.1 µM [activator, partial curve] and inactive

**Q.** Which activity change, negative = inhibition does the source give for `CNC(=O)Nc1ccc(Cl)c(Cl)c1` here?
**A.** inconclusive: 7.56%

**Q.** With `CC(=O)O[C@H]1C[C@@H]2CC[C@@]1(C)C2(C)C` as the molecule, how does the activity change, negative = inhibition read?
**A.** inconclusive: 1.85%

**Q.** Which activity change, negative = inhibition does the source give for `CCCCCCCCCCCCCCCC(=O)O` here?
**A.** inconclusive: 6.02%

**Q.** For `CC(CC(=O)Cl)CC(C)(C)C` (stereo unspecified), which activity change, negative = inhibition is on record?
**A.** inconclusive: 19.7% [at 78.8 µM]

**Q.** Which Potency does the source give for `CCOCCO` here?
**A.** inactive

**Q.** For `O=C[O][Al]([O]C=O)[O]C=O`, which activity change, negative = inhibition is on record?
**A.** inconclusive: 11.5%

**Q.** Which activity change, negative = inhibition does the source give for `O=C(O)CCCC[P+](c1ccccc1)(c1ccccc1)c1ccccc1` here?
**A.** inconclusive: -5.75%

tested on: not listed separately; assay: qHTS assay to identify small molecule agonists of the vitamin D receptor (VDR) signaling pathway - cell viability counter screen (AID 743224); details: VDR-bla HEK293T viability, CellTiter-Glo luminescence, 16 h; activity change, negative = cytotoxicity: at 62.6 µM (top of the series); note: nearly all actives have a fitted effect of over 50% in size
Method in brief: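 VDR-bla cells were preincubated 4 h at 37C/5% CO2, then exposed to compounds for 16 h. After the 2 h room-temperature bla FRET read, CellTiter-Glo was added to the same wells and luminescence read after 30 min.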

**Q.** For `CCC1(c2ccccc2)C(=O)NCNC1=O`, which Potency is on record?
**A.** inconclusive: 20 µM [rising, partial curve, poor fit]

**Q.** For `CCN(CCO)c1cccc(C)c1`, which “activity change, negative = cytotoxicity” value is on record?
**A.** inactive: 6.59%

**Q.** With `CCCCCC/C=C/C(=O)OC` as the molecule, how does the “activity change, negative = cytotoxicity” value read?
**A.** inactive: -10.3%

**Q.** With `CCNC(=O)[C@@H]1CCCN1C(=O)[C@H](CCCN=C(N)N)NC(=O)[C@H](CC(C)C)NC(=O)CNC(=O)[C@H](Cc1ccc(O)cc1)NC(=O)[C@H](CO)NC(=O)[C@H](Cc1c[nH]c2ccccc12)NC(=O)[C@H](Cc1cnc[nH]1)NC(=O)[C@@H]1CCC(=O)N1` ([pGlu]HWSYGLRP-NHEt) as the molecule, how does the “activity change, negative = cytotoxicity” value read?
**A.** inactive: 14.3%

**Q.** Which Potency does the source give for `COc1cc([N+](=O)[O-])ccc1N` here?
**A.** inconclusive: 38.9 µM [cytotoxic, partial curve, poor fit]

**Q.** With `c1ccc(SCCSc2ccccc2)cc1` as the molecule, how does the “activity change, negative = cytotoxicity” value read?
**A.** inactive: 9.33%

**Q.** With `O=C(O)CCCC[P+](c1ccccc1)(c1ccccc1)c1ccccc1` as the molecule, how does the “activity change, negative = cytotoxicity” value read?
**A.** inactive: 8.67%

tested on: not listed separately; assay: qHTS assay to identify small molecule antagonists of the vitamin D receptor (VDR) signaling pathway - cell viability counter screen (AID 743225); details: VDR-bla HEK293T viability, CellTiter-Glo luminescence, 16 h; viability change, negative = cytotoxic: at 61 µM (top of the series) unless noted; note: nearly all actives have a fitted effect of over 50% in size
Method in brief: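 VDR-bla HEK 293T cells, 4 h pre-incubation at 37C, then compound plus 1-alpha,25-dihydroxyvitamin D3 (3 nM final) for 16 h. After the beta-lactamase FRET read, CellTiter-Glo was added to the same wells; luminescence after 30 min at room temperature.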

**Q.** For `O=C1CCCC1`, which Potency is on record?
**A.** inconclusive: 1.11 µM [cytotoxic, single point]

**Q.** Which Potency does the source give for `CCC(O)OCCCOC` (stereo unspecified) here?
**A.** inactive

**Q.** With `CCN(CCO)c1cccc(C)c1` as the molecule, how does the “viability change, negative = cytotoxic” value read?
**A.** inactive: 7.6%

**Q.** For `Cc1cccc2ccccc12`, which Potency is on record?
**A.** inactive

**Q.** Which Potency does the source give for `CC(C)(O)C(=O)O` here?
**A.** inconclusive: 18.9 µM [cytotoxic, single point]

**Q.** With `CC(N)CN` (stereo unspecified) as the molecule, how does the “viability change, negative = cytotoxic” value read?
**A.** inactive: -0.725% [at 78.8 µM]

**Q.** With `Cc1cccc(O)c1` as the molecule, how does the Potency read?
**A.** inconclusive: 0.049 µM [cytotoxic, full curve, poor fit]

**Q.** With `CC(C)C/C=C(\C=O)c1ccccc1` as the molecule, how does the Potency read?
**A.** inconclusive: 61.7 µM [cytotoxic, partial curve, poor fit]

**Q.** Which viability change, negative = cytotoxic does the source give for `COc1cc2c(Nc3ccc(Br)cc3F)ncnc2cc1OCC1CCN(C)CC1` here?
**A.** inconclusive: -20.7% [cytotoxic]

**Q.** With `Cc1nc2ccc(Cl)cc2[nH]1` as the molecule, how does the Potency read?
**A.** inconclusive: 21.8 µM [rising, single point]

**Q.** Which Potency does the source give for `CCCCCCOC(=O)CCCCCCCC(=O)OCCCCCC` here?
**A.** inconclusive: 2.19 µM [cytotoxic, single point]

**Q.** Which “viability change, negative = cytotoxic” value does the source give for `c1ccc(SCCSc2ccccc2)cc1` here?
**A.** inactive: 0%

**Q.** Which Potency does the source give for `CCOCCO` here?
**A.** inconclusive: 61.6 µM [cytotoxic, single point]
